Experimental data from article PMC2990700.
These are yes or no findings as the source states them, for the method shown. In cells and extracts the contact can be indirect. Some binding calls cover weakened binding; strength is not graded here. For part of these data: Tags and fused reporters may be left off the sequences shown.

Sequences of proteins named here, by UniProt entry; tags and fusion partners are left off. A change or cut given only in a name is not applied to a line headed by its entry. A line that says so, or that is headed by a name, gives the form on record, which may keep a tag or linker. Residues count along the entry.
UniProt Q9DCH4: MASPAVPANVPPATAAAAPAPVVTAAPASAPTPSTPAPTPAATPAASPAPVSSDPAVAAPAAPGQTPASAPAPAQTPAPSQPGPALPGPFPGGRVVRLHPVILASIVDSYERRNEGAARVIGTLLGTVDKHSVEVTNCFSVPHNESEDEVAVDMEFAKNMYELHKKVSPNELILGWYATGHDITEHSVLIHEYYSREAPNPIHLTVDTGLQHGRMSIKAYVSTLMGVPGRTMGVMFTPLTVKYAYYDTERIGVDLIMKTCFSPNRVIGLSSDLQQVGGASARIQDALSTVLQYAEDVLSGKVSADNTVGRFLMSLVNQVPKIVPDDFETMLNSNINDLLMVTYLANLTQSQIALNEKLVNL
HA-tagged murine eIF3f (1–192): residues 1-192 of Q9DCH4
Flag-tagged murine eIF3f (91–361): residues 91-361 of Q9DCH4
Flag-tagged murine eIF3f (188–361): residues 188-361 of Q9DCH4
S-tagged murine eIF3f active site mutant (HDI to AAA; stable MEF line) (Q9DCH4, form named): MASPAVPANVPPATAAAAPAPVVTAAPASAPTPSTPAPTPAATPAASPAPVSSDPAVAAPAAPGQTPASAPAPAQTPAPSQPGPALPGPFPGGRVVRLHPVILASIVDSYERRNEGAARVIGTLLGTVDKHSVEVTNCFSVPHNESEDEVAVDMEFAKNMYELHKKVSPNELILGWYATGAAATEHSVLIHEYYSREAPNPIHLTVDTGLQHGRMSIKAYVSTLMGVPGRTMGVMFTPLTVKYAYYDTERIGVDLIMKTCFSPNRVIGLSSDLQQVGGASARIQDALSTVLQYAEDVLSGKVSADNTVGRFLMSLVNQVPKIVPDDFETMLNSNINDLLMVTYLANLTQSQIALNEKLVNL
UniProt Q01705, residues 19-2183: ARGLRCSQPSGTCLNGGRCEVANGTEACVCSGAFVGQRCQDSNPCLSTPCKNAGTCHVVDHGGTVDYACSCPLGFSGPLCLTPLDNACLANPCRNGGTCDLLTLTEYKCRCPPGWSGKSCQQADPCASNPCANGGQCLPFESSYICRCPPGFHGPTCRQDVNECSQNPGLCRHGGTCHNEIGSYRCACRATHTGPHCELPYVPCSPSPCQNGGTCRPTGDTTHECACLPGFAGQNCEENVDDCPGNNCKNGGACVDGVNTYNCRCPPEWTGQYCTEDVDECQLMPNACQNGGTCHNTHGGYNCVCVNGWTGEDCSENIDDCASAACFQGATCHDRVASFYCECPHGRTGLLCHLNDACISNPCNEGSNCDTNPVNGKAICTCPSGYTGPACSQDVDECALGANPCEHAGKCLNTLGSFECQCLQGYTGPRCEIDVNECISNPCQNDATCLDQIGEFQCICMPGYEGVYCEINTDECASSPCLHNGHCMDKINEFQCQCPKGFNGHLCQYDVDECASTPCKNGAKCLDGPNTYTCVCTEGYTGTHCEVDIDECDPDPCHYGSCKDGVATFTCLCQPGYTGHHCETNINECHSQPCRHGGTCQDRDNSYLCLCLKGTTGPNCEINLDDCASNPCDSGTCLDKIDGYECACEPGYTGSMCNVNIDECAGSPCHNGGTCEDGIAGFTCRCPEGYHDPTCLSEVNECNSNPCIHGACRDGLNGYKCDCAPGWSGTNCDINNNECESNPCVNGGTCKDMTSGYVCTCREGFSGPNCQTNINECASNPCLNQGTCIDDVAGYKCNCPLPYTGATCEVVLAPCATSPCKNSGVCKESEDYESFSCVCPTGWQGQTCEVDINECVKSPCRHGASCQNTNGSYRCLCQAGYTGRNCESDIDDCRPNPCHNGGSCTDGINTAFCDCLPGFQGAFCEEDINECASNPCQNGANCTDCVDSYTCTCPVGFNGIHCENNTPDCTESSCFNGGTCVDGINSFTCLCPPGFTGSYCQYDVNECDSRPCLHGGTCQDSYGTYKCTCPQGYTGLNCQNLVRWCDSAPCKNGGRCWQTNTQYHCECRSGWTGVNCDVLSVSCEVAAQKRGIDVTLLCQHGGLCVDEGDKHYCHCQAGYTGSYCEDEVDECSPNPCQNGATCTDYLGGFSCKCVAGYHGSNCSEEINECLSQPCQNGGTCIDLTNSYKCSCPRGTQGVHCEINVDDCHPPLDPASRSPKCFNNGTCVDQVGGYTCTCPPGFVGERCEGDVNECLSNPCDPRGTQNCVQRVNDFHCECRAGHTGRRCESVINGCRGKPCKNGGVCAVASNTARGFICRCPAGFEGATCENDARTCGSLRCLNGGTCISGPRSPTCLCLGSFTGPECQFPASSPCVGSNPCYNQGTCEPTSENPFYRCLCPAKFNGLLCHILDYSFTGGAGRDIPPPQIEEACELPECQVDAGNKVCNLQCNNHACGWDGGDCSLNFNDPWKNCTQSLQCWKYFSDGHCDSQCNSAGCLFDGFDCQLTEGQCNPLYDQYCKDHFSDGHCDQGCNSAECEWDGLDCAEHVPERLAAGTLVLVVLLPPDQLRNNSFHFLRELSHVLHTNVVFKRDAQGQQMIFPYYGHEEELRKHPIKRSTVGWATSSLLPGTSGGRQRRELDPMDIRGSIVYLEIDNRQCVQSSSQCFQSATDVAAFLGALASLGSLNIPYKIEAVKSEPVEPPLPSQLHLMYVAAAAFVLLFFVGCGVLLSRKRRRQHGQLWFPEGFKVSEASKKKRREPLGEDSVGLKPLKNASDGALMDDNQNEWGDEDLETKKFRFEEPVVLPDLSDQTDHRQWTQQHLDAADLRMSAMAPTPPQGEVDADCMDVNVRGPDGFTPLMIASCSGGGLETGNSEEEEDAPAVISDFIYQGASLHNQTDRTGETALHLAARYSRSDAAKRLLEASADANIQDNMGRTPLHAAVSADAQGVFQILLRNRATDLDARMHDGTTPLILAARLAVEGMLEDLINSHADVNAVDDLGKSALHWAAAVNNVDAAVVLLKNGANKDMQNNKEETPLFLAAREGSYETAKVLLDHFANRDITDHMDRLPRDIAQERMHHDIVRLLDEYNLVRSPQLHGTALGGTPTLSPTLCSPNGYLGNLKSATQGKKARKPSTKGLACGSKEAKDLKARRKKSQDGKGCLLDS

Tests used:
[1] = biological target: T1, VSV-tagged Deltex1 (VSV-DTX) (UniProt Q86Y01); test: co-IP; HEK293T cotransfected with eIF3f forms and VSV-DTX; IP with anti-VSV, precipitates eluted with VSV peptide; Western blot
T1 sequence: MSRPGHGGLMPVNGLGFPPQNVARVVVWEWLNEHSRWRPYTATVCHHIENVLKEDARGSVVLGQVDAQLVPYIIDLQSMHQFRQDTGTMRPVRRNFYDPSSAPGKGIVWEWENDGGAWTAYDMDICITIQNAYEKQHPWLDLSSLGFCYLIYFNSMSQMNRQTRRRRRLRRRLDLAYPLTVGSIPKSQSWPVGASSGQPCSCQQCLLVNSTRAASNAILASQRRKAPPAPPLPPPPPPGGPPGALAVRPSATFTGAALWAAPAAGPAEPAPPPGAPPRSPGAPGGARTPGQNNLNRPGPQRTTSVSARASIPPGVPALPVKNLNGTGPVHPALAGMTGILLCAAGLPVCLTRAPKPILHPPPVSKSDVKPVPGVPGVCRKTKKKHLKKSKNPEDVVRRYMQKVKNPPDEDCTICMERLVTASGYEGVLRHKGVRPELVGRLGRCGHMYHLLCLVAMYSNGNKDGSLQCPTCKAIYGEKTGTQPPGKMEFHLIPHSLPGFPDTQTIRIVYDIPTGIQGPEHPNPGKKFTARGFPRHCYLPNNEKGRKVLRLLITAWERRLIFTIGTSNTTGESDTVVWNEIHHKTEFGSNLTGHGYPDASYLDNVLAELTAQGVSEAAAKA

[2] = biological target: T2, VSV-DTX (stable MEF line) (UniProt Q86Y01); test: co-IP; stable MEF lines with low amounts of VSV-DTX and S-tagged eIF3f; IP with VSV antibody, VSV-peptide-eluted; Western blot
T2 sequence: T1 sequence

[3] = biological target: HA-tagged murine eIF3f WT (meIF3f WT) (mouse) (UniProt Q9DCH4); test: co-IP; HEK293T cotransfected with HA-eIF3f, VSV-DTX and a myc-tagged Notch construct; IP with anti-HA; Western blot
[4] = biological target: S-tagged murine eIF3f WT (stable MEF line) (mouse) (UniProt Q9DCH4); test: co-IP; stable MEF lines with low amounts of VSV-DTX and S-tagged eIF3f; IP with S-tag antibody, Laemmli-eluted; Western blot
[5] = biological target: HA-tagged murine eIF3f (1–192) (mouse) (UniProt Q9DCH4); test: co-IP; HEK293T cotransfected; lysis and IP in 50 mM Tris-HCl pH 7.9, 400 mM NaCl, 5 mM MgCl2, 1% Triton X-100; eIF3f immunoprecipitated with anti-HA or anti-Flag; Western blot
[6] = biological target: Flag-tagged murine eIF3f (91–361) (mouse) (UniProt Q9DCH4); test: as above
[7] = biological target: HA-tagged murine eIF3f WT (meIF3f WT) (mouse) (UniProt Q9DCH4); test: as above
[8] = biological target: Flag-tagged murine eIF3f (188–361) (mouse) (UniProt Q9DCH4); test: as above

## HA-tagged murine eIF3f WT (meIF3f WT) (from UniProt Q9DCH4 1-361)
[1]
  binding: binds

## S-tagged murine eIF3f active site mutant (HDI to AAA; stable MEF line) (from UniProt Q9DCH4 1-361)
[2]
  binding: binds

## S-tagged murine eIF3f WT (stable MEF line) (from UniProt Q9DCH4 1-361)
[2]
  binding: binds

## Notch FL (myc-tagged non-activated full-length murine Notch1, deleted from aa 2183) (from UniProt Q01705 19-2183) (receptor)
[3]
  binding: no binding

B1: VSV-DTX (stable MEF line) (protein, UniProt Q86Y01 1-620)
chain: T1 sequence
[4]
  binding: binds

B2: VSV-tagged Deltex1 (VSV-DTX) (protein, UniProt Q86Y01 1-620)
chain: T1 sequence
[5]
  binding: binds
[6]
  binding: binds
[7]
  binding: binds
[8]
  binding: binds
